Biological target: the molecule itself
Assay: ThT fluorescence aggregation assay + transmission electron microscopy; self-assembly into amyloid fibrils: 4.4 µM tau or tau RD with 4.4 µM heparin, 25 µM ThT, 1x PBS with 5 µM β-mercaptoethanol, room temperature; fibrils confirmed by TEM

B1: full-length (FL) P301L tau (2N4R; […]) (natural protein)
chain: not shown
notes: tau, human, 2N4R isoform, […], disease-associated mutation P301L; also called mutant P301L tau; source: E. coli BL21-Gold (DE3), purified (Ni-NTA, HiTrap SP HP, Superdex 200)
B1: binds.
